From PubChem BioAssay AID485294 (National Center for Advancing Translational Sciences (NCATS), 2010)
Screen size: about 370,000 compounds; about 150 (0.041%) were called active. The inconclusive results got no clear call from the source; some entries with a clear call stand among them for comparison. The call rests on the fitted dose curve; in most records, active means well fitted inhibition curve with a large enough effect; inconclusive means small, poorly fitted or top-dose-only effect; inactive means flat fitted curve, though single readings scatter. No potency is given beside an inconclusive call; the fits are too rough.

The compounds below were run against Beta-lactamase (Escherichia coli (strain K12)) (UniProt P00811) (assay: qHTS Inhibitors of AmpC Beta-Lactamase (assay with detergent)). Conditions: AmpC hydrolysis of nitrocefin, absorbance 480 nm, 0.01% Triton; activity change, negative = inhibition: at 114 µM (top of the series).
Method in brief: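 AmpC (5.3 nM in the dispensed reagent) in 20 mM phosphate pH 7.0 with 0.01% (detergent screen) or 0.0001% Triton X-100 was preincubated with compounds for 15 min at room temperature. Nitrocefin was then added from an 800 uM solution, and hydrolysis was followed at 480 nm.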
Further: nearly all actives have a fitted effect of over 25% in size.
Potency means the concentration at half of the fitted maximal effect; tags describe the fitted curve by direction and shape.
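Wherever activity change, negative = inhibition is given: 0% = no-compound wells and -100% = no-enzyme wells.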

UniProt P00811, sequence (P00811 whole entry, looked up): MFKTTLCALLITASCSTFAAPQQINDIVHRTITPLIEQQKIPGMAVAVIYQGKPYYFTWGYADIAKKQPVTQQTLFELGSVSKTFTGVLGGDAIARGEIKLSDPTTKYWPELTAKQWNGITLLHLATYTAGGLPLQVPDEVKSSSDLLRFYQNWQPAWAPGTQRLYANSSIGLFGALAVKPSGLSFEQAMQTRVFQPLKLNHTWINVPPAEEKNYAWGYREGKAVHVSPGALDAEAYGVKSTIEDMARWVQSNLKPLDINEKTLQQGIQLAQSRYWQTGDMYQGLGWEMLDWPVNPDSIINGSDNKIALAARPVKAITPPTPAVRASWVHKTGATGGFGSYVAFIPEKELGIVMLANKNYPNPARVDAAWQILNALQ

Row | Structure (SMILES) | activity change, negative = inhibition | Potency
1 | COc1ccc2cc(-c3ccccc3)c(=O)oc2c1 | inactive: -2.49% | 
2 | COCc1nnc(NC(=O)CCCOc2ccccc2OC)s1 |  | inconclusive [inhibitor, partial curve]
3 | O=C(c1cnccn1)N(Cc1cccs1)C1(C(=O)NC2CCCC2)CCCCC1 |  | inconclusive [inhibitor, full curve, poor fit]
4 | CC(NS(=O)(=O)c1ccc(OCC(=O)NCc2ccncc2)cc1)c1ccccc1 (centres undefined) |  | inconclusive [inhibitor, full curve, poor fit]
5 | CC(=O)N/C(=C/c1ccc2c(c1)OCO2)C(=O)N1CCOCC1 |  | inconclusive [inhibitor, partial curve]
6 | CCCCC(CCC(=O)Nc1nccs1)C(=O)O (centres undefined) |  | inconclusive [inhibitor, full curve, poor fit]
7 | CC(=O)Nc1ccc(C(=O)CSc2nnnn2C2CCCC2)cc1 | inactive: 10.2% | 
8 | COc1ccc(NC(=O)/C=C/c2cc(Br)ccc2OC)cc1 | inactive: 2.88% | 
9 | COc1ccc(CCCC(=O)N/N=C\c2cccs2)cc1 |  | inconclusive [inhibitor, single point]
10 | Cc1cc(NC(=O)COC(=O)c2nccnc2N)n(-c2ccccc2)n1 |  | inconclusive [inhibitor, partial curve, poor fit]
11 | O=C1OC2(O)C3C4C=CC(C4)C3C(=O)N2c2ccccc21 (centres undefined) | inactive: -5.72% | 
12 | O=[N+]([O-])c1cc(/C=N/Nc2nc3ccccc3[nH]2)c(O)cc1O | inactive: -16.8% | 
13 | O=C(Nc1ccc(OC(F)F)c(Cl)c1)c1ccccn1 |  | inconclusive [inhibitor, full curve, poor fit]
14 | CCS(=O)(=O)N1CCC(NC(=O)C(Cc2cc(OC)ccc2OC)NC(C)=O)CC1 (centres undefined) |  | inconclusive [inhibitor, single point]
15 | O=C(NN=C1CCC(=NNC(=O)c2ccccn2)CC1)c1ccccn1 | inactive: -5.28% | 
16 | Nc1c(Cl)ncnc1N/N=C/c1ccccn1 |  | inconclusive [inhibitor, full curve, poor fit]
17 | Clc1ccccc1-c1nn2c(COc3ccccc3)nnc2s1 |  | inconclusive [inhibitor, full curve]
18 | CCn1cc(CN2CCC(n3nccc3NC(=O)Cc3ccccc3)CC2)c(C)n1 | inactive: 0.607% | 
19 | Cc1ccc2c(c1)c1c(n2CC(O)Cn2c(C)nc3ccccc32)C(=O)CCC1 (centres undefined) |  | inconclusive [inhibitor, full curve, poor fit]
20 | COc1ccc(C)cc1NC(=O)Cn1cc(S(=O)(=O)N2CCC(C)CC2)c2ccccc2c1=O | inactive: 14.2% | 
21 | Cc1ccc(/S(C)=N/S(=O)(=O)c2ccc(C)cc2)cc1 (centres undefined) |  | inconclusive [inhibitor, full curve]
22 | COc1ccc(Cl)cc1C(=O)N1CCC2(CC1)CC(=O)c1ccccc1O2 |  | inconclusive [inhibitor, full curve]

Row | Structure (SMILES) | activity change, negative = inhibition | Potency
23 | COc1ccccc1NC(=O)/C=C/C(N)=O |  | inconclusive [inhibitor, single point]
24 | Cc1c(-c2ccccc2)[n+](=O)c(-c2ccco2)c(C)n1[O-] |  | inconclusive [inhibitor, full curve, poor fit]
25 | CN(C(=O)c1ccoc1)c1ccc2ccccc2c1 | inactive: -5.36% | 
26 | COc1ccc(CC(=O)OCC(=O)Nc2ccc(F)cc2)cc1 |  | inconclusive [inhibitor, partial curve, poor fit]
27 | CN(C)c1ccc(/C=C2\SC(=O)N(CCc3nnc(N)s3)C2=O)cc1 |  | inconclusive [inhibitor, single point]
28 | CCCCOc1ccc(N(CC(=O)NCCOC)C(=O)CCC(=O)Nc2ccccn2)cc1 |  | inconclusive [inhibitor, single point]
29 | COc1cccc(NC(=S)NCc2cccs2)c1 |  | inconclusive [inhibitor, single point]
30 | Cc1c(/C=N/NC(=O)c2cccnc2)c2ccccn2c1C(=O)c1ccc(F)cc1 |  | inconclusive [inhibitor, full curve]
31 | O=C(COc1ccc(Br)cc1)Nc1ccc(S(=O)(=O)Nc2ccccn2)cc1 | inactive: 2.23% | 
32 | O=C(CSc1nnnn1-c1ccccc1)NC(=O)Cc1ccccc1 |  | inconclusive [inhibitor, full curve, poor fit]
33 | NS(=O)(=O)c1ccc(CCNC(=O)C2CCCCN2S(=O)(=O)c2ccccc2)cc1 (centres undefined) |  | inconclusive [inhibitor, full curve, poor fit]
34 | O=C(Nc1ccc(Cl)c(Cl)c1)Nc1ccccc1O | inactive: -4.27% | 
35 | Cc1cc(C(=O)N2CCC(Cc3ccccc3)CC2)ccc1[N+](=O)[O-] |  | inconclusive [inhibitor, full curve]
36 | Cc1ccc(NC(=S)c2ccc3ccccc3n2)c(C)c1 |  | inconclusive [inhibitor, full curve]
37 | COCCn1nnnc1CN1CCC(Cc2ccccc2)CC1 |  | inconclusive [inhibitor, full curve, poor fit]
38 | O=C(Nc1nc2ccccc2n1CCN1CCOCC1)c1ccccc1 |  | inconclusive [inhibitor, full curve, poor fit]
39 | CCOc1cc(C(=O)OCc2cccc(OC)c2OC)ccc1OCC(=O)N1CCOCC1 |  | inconclusive [inhibitor, full curve, poor fit]
40 | Cc1ccc(NC(=O)CCC(=O)N/N=C/c2ccc([N+](=O)[O-])o2)cc1C | inactive: 3.15% | 
41 | O=C(COc1ccccc1)Nc1ccccc1C(=O)NC1CC1 |  | inconclusive [inhibitor, full curve, poor fit]
42 | CC1CCN(C(=O)COC(=O)c2ccc(N3CCCC3=O)cc2)CC1 |  | inconclusive [inhibitor, partial curve, poor fit]
43 | O=C(Nc1nnc(SCc2ccccc2)s1)c1cccc([N+](=O)[O-])c1 | inactive: -2.05% | 
44 | O=C(C(=O)N1CCN(c2ccc(F)cc2)CC1)c1c[nH]c2ccccc12 |  | inconclusive [inhibitor, full curve, poor fit]
